{
  "source": "the supplement of paper PMC10338343",
  "note": "± gives the standard deviation. Over roughly 3,700 sequences, “pre-steady-state target cleavage rate” has its median near 0.02; the highest 2% begin near 0.23. The list shows a part of the results, in another mix than the full data.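 Note: 1 nM active piRISC with 0.1 nM target library at 33 °C single turnover.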",
  "data": [
    {"system": "MILI (PIWIL2) piRISC loaded with Kctd7 piRNA (26 nt)", "assay": "pre-steady-state target cleavage rate (min^-1); MIWI and MILI are mouse PIWI proteins and EfPiwi is from a freshwater sponge; tags in brackets are library labels; higher = faster piRNA-guided slicing of the target", "conditions": "guide: Kctd7 piRNA 5'p-UGUUAAUCUCUCAGAGAAGGUGACAG; auxiliary factor: 500 nM mouse GTSF1", "method_in_brief": "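A transcribed, DNA-blocked target RNA library […] was incubated at 33 °C for 0–8 or 0–960 min with 1 nM active affinity-purified piRISC carrying one synthetic guide, in HEPES–potassium acetate buffer with or without 500 nM GTSF1 partner protein. Uncleaved targets were then sequenced and normalised to depth and to weakly complementary targets. Data from three trials were pooled, with k3 capped at 0.0001 min^-1, and a burst-and-steady-state fit yielded the pre-steady-state cleavage rate.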", "values": [
      {"sequence": "UAGUGACUCACGUUCUCUGAGAGAUUUACA", "pre-steady-state target cleavage rate": "0.0554 ± 0.015"},
      {"sequence": "UAGUGACAGUCCCUUCUCUGAGAGAUUAACA", "pre-steady-state target cleavage rate": "0.187 ± 0.017"},
      {"sequence": "UAGUGAGUCUCCUUCUCUGAGAGAUAAACA", "pre-steady-state target cleavage rate": "0.00873 ± 0.0047"},
      {"sequence": "UAGUGUGUCACCUUCUCUGUAGAGAUUAACA", "pre-steady-state target cleavage rate": "0.0119 ± 0.0041"},
      {"sequence": "UAGUCUGUCACCUUUUCUGAGAGAUUAACA", "pre-steady-state target cleavage rate": "0.209 ± 0.015"},
      {"sequence": "UAGUGACUCACCUUCUCAGAGAGAUUAACA", "pre-steady-state target cleavage rate": "0.0883 ± 0.007"},
      {"sequence": "UAGUGAGUCACCUUCUCUGAGACGAUUAACA", "pre-steady-state target cleavage rate": "0.0798 ± 0.012"},
      {"sequence": "UAGUGAGUCACCUUCUCUGAGAGAUUGAACA", "pre-steady-state target cleavage rate": "0.143 ± 0.023"},
      {"sequence": "UAGUGUGUCACCUUCUCUGUGAGAUUAUGA", "pre-steady-state target cleavage rate": "0.0178 ± 0.0076"},
      {"sequence": "UAGUGACAGUGGUUGUGUGAGAGAUUAACA", "pre-steady-state target cleavage rate": "< 0.0001"},
      {"sequence": "UAGUGUGUCACCUUCUCUGAGAGUUAACA", "pre-steady-state target cleavage rate": "0.194 ± 0.055"},
      {"sequence": "UAGUGUGUCACGAUCUCUGAGAGAUUAACA", "pre-steady-state target cleavage rate": "0.116 ± 0.0092"},
      {"sequence": "UAGUGAGUCACGAUCUCUGAGAGAUUAUGA", "pre-steady-state target cleavage rate": "0.00946 ± 0.0037"},
      {"sequence": "UAGUCUGUCACCUUCUCUGAGAGACUUAACA", "pre-steady-state target cleavage rate": "0.145 ± 0.024"},
      {"sequence": "UAGUGACAGAGCUUCUCUGAGAGAUAAACA", "pre-steady-state target cleavage rate": "0.0214 ± 0.0056"},
      {"sequence": "UAGUGACAGUCCGUCUCUGAGAGAUUAACA", "pre-steady-state target cleavage rate": "0.0557 ± 0.0066"},
      {"sequence": "UAGUCUGUACCUUCUCUGAGAGAUUAACA", "pre-steady-state target cleavage rate": "0.171 ± 0.011"},
      {"sequence": "UAGUGACACUCCUUCUCAGAGAGAUUAACA", "pre-steady-state target cleavage rate": "0.0439 ± 0.0078"},
      {"sequence": "UAGUCAGUCACCUUCUCUGAGAGAUUAUGA", "pre-steady-state target cleavage rate": "0.0793 ± 0.02"},
      {"sequence": "UAGUCUGUCACCUUCACUGAGAGAAUAACA", "pre-steady-state target cleavage rate": "0.0651 ± 0.023"},
      {"sequence": "UAGUGAGUCACCUUCUCUCAGAGAUAAACA", "pre-steady-state target cleavage rate": "0.0162 ± 0.008"},
      {"sequence": "UAGUCUGUAACCUUCUCUGAGAGAUUAACA", "pre-steady-state target cleavage rate": "0.182 ± 0.011"},
      {"sequence": "UAGUGACAGUGCUUCUCUGAGAGAUUUAGA", "pre-steady-state target cleavage rate": "< 0.0001"},
      {"sequence": "UAGUGACACACCAUCUCUCAGAGAUUAACA", "pre-steady-state target cleavage rate": "0.0222 ± 0.006"},
      {"sequence": "UAGUGUGUCACCAUCACUGAGAGAUUAACA", "pre-steady-state target cleavage rate": "0.157 ± 0.012"},
      {"sequence": "UAGUGACUCACCUUCUCUGUGAGAUUAAGA", "pre-steady-state target cleavage rate": "0.0223 ± 0.0049"},
      {"sequence": "UAGUGACAGAGCUUCUCUCAGAGAUUAACA", "pre-steady-state target cleavage rate": "0.0112 ± 0.0039"},
      {"sequence": "UAGUGAGUCACCUUGUCUCAGAGAUUAACA", "pre-steady-state target cleavage rate": "0.0277 ± 0.0064"},
      {"sequence": "UAGUGACACACCUUCAGUGAGAGAUUAAGA", "pre-steady-state target cleavage rate": "0.0275 ± 0.011"},
      {"sequence": "UAGUGACAGACGUUCUCUGAGAGAUAAACA", "pre-steady-state target cleavage rate": "0.0112 ± 0.0046"},
      {"sequence": "UAGUGACAGUGGUUCUCUGACAGAUUAACA", "pre-steady-state target cleavage rate": "< 0.0001"},
      {"sequence": "UAGUGUGUCACCAUGUCUGAGAGAUUAACA", "pre-steady-state target cleavage rate": "0.0676 ± 0.0067"},
      {"sequence": "UAGUGACUGUCCUUCUCUGAGAGAUUAACA", "pre-steady-state target cleavage rate": "0.2 ± 0.016"},
      {"sequence": "UAGUGACACACCUUCUGUGAGAGAUUUACA", "pre-steady-state target cleavage rate": "0.0481 ± 0.016"},
      {"sequence": "UAGUGACUCAGCUUCUCUGAGAGAUAAACA", "pre-steady-state target cleavage rate": "0.0258 ± 0.0049"},
      {"sequence": "UAGUGAGACACCUUCUCUGAGAGAUUAUCA", "pre-steady-state target cleavage rate": "0.138 ± 0.035"},
      {"sequence": "UAGUCUGUCACCUAUCUCUGAGAGAUUAACA", "pre-steady-state target cleavage rate": "0.155 ± 0.01"},
      {"sequence": "UAGUGAGUCACCUUCUCAGAGAGUUUAACA", "pre-steady-state target cleavage rate": "0.143 ± 0.045"},
      {"sequence": "UAGUGACAGUCCUUCUCUGAGUCUUUAUGA", "pre-steady-state target cleavage rate": "< 0.0001"},
      {"sequence": "UAGUGAGUCACCUUCUCUGACGAGAUUAACA", "pre-steady-state target cleavage rate": "0.0343 ± 0.011"},
      {"sequence": "UAGUGACAGUCCUUUUCUGAGAGAUUAACA", "pre-steady-state target cleavage rate": "0.0721 ± 0.0096"},
      {"sequence": "UAGUGACUCUCCUUCUCUGAGACAUUAACA", "pre-steady-state target cleavage rate": "0.0732 ± 0.01"},
      {"sequence": "UAGUGAGUCACGAACUCUGAGAGAUUAAGA", "pre-steady-state target cleavage rate": "0.0091 ± 0.0034"},
      {"sequence": "UAGUGUGAGUCCUUCUCUGAGAGAUUAACA", "pre-steady-state target cleavage rate": "0.0652 ± 0.014"},
      {"sequence": "UAGUGACUCACCUUCUCUGGAGAUUAACA", "pre-steady-state target cleavage rate": "0.00403 ± 0.0035"},
      {"sequence": "UAGUGAGUCAGCUUCUGUGAGAGAUUAACA", "pre-steady-state target cleavage rate": "0.127 ± 0.0085"},
      {"sequence": "UAGUGACACACGUUCUCUGAGAGAUUAUGA", "pre-steady-state target cleavage rate": "0.0084 ± 0.0028"},
      {"sequence": "UAGUGACUGACCUACUCUGAGAGAUUAACA", "pre-steady-state target cleavage rate": "0.113 ± 0.011"},
      {"sequence": "UAGUGACACACCUUCUCUGAGAGCAUUAACA", "pre-steady-state target cleavage rate": "0.179 ± 0.022"},
      {"sequence": "UAGUGUGUCUCCUUCACUGAGAGAUUAACA", "pre-steady-state target cleavage rate": "0.0568 ± 0.0074"},
      {"sequence": "UAGUGUGUCACGUUCUGUGAGAGAUUAACA", "pre-steady-state target cleavage rate": "0.144 ± 0.011"},
      {"sequence": "UAGUGACUCACCUUCUCUGAUAGAUUAACA", "pre-steady-state target cleavage rate": "0.0701 ± 0.008"},
      {"sequence": "UAGUGACUCUCCUUCUCUGAGAGAUAAACA", "pre-steady-state target cleavage rate": "0.055 ± 0.0098"},
      {"sequence": "UAGUGACAGACCUUCACUGAGAGAUUAUCA", "pre-steady-state target cleavage rate": "0.032 ± 0.014"},
      {"sequence": "UAGUGACAGUCCUUCUCUGGGAGAUUAACA", "pre-steady-state target cleavage rate": "0.0569 ± 0.0073"},
      {"sequence": "UAGUGACACACCAUCUGUGAGAGAUUAACA", "pre-steady-state target cleavage rate": "0.067 ± 0.01"},
      {"sequence": "UAGUCAGUGACCUUCUCUGAGAGAUUAACA", "pre-steady-state target cleavage rate": "0.155 ± 0.0087"},
      {"sequence": "UAGUGACACACGAACUCUGAGAGAUUAACA", "pre-steady-state target cleavage rate": "0.00382 ± 0.0018"},
      {"sequence": "UAGUGACACACCAUCUCUGAGAGAAUAACA", "pre-steady-state target cleavage rate": "0.015 ± 0.0067"},
      {"sequence": "UAGUGAGUCACCUUCUCUGGAGAUUAACA", "pre-steady-state target cleavage rate": "0.0188 ± 0.0076"},
      {"sequence": "UAGUGUGUCAGCUUCUCUGAGAGAUUUACA", "pre-steady-state target cleavage rate": "0.072 ± 0.018"},
      {"sequence": "UAGUGACUCACGAUCUCUGAGAGAUUAACA", "pre-steady-state target cleavage rate": "0.0452 ± 0.0036"},
      {"sequence": "UAGUGACAGUCCUUCUGUGAGAGUUUAACA", "pre-steady-state target cleavage rate": "0.0064 ± 0.0021"},
      {"sequence": "UAGUCUGUCACCUUCUCUGACAGAUUAACA", "pre-steady-state target cleavage rate": "0.0146 ± 0.0062"},
      {"sequence": "UAGUCUGUCACCUACUCUGAGAGAAUAACA", "pre-steady-state target cleavage rate": "0.0882 ± 0.017"},
      {"sequence": "UAGUGAGUCACCUUCUGUGUGAGAUUAACA", "pre-steady-state target cleavage rate": "0.0434 ± 0.0067"},
      {"sequence": "UAGUGACUCAGCUUCUCUGAGAGAUUAUGA", "pre-steady-state target cleavage rate": "0.0039 ± 0.0032"},
      {"sequence": "UAGUCAGUCACCUUCUCUGACAGAUUAACA", "pre-steady-state target cleavage rate": "0.0294 ± 0.0084"},
      {"sequence": "UAGUGACACACCUUCUCUGAUAGAUUAACA", "pre-steady-state target cleavage rate": "0.0627 ± 0.0081"},
      {"sequence": "UAGUGUGUCACCUUCUCUGAGAGAUUAACCA", "pre-steady-state target cleavage rate": "0.236 ± 0.021"},
      {"sequence": "UAGUGAGUCACCUUCUCUGACACAUUAACA", "pre-steady-state target cleavage rate": "0.00545 ± 0.0036"},
      {"sequence": "UAGUGACUCACUCUUCUCUGAGAGAUUAACA", "pre-steady-state target cleavage rate": "0.0796 ± 0.0079"}
    ]}
  ]
}
